Laboratory results taken from PMC4336329 (PLoS ONE, 2015).
Out of some 310,000 compounds screened, about 2,200 (0.71%) showed an effect of 50% or more. The effect is printed as a negative number. The list shows a part of the results.

Biological target: human ether-à-go-go-related gene (hERG) potassium channel (human, UniProt Q12809)
Experiment: primary screen, population patch clamp on CHO cells stably expressing hERG

Chain of human ether-à-go-go-related gene (hERG) potassium channel (Q12809 whole entry, looked up): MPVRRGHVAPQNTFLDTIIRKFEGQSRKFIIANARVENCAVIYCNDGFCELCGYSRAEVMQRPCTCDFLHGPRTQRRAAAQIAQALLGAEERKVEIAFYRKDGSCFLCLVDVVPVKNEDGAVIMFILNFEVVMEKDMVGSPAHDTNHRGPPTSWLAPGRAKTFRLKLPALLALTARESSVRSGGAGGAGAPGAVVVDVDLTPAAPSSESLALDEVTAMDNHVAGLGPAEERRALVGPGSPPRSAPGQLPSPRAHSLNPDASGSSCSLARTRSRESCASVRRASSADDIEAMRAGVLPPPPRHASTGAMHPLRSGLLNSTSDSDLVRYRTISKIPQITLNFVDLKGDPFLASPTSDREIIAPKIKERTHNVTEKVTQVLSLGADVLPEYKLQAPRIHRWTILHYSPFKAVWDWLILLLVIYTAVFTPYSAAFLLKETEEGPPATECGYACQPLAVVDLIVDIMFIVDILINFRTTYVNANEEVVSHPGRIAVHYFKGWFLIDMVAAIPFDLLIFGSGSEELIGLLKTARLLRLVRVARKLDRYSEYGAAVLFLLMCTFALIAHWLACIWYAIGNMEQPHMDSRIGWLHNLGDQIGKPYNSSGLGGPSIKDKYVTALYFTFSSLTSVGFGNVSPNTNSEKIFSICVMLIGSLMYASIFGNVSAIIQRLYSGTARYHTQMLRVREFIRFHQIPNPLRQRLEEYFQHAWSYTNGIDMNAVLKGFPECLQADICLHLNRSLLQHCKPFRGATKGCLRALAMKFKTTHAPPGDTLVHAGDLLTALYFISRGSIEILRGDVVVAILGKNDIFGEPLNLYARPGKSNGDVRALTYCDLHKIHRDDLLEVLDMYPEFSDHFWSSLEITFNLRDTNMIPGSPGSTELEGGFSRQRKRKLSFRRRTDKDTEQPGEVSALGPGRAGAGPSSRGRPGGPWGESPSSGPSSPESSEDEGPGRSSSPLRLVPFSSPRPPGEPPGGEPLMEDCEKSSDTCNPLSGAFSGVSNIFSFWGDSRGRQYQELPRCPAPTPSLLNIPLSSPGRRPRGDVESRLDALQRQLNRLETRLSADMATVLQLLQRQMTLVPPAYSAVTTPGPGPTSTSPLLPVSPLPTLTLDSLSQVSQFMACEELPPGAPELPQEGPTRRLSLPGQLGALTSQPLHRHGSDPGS

Structure (SMILES) | hERG current change (%, negative = inhibition) at 1uM [%]
CN(Cc1ccccc1)C(=O)c1[nH]cnc1C(=O)Nc1ccccc1 | 11.6
O=C(c1ccc2nccnc2c1)N1CCCC(N2CCN(c3ccc(F)cc3)CC2)C1 (stereo not shown) | 0.174
Nc1cc(C(=O)OCC(=O)NCCNC(=O)COC(=O)c2ccc(Cl)c(N)c2)ccc1Cl | 13.7
CC(C)(C)CC(=O)Nc1ccccc1N1CCN(c2ccccc2)CC1 | -1.09
COCCNC(=O)c1ccccc1-c1nc(-c2ccccc2OC)no1 | 2.3
Cc1cccc(C(=O)N/N=C/c2ccc(OC3CSC3)cc2)c1 | -59.8
CCN(C(=O)CSc1nc2nc(C)cc(C)n2n1)c1cccc(C)c1 | 12.1
CCn1c(CNc2cccc(C(F)(F)F)c2)n[nH]c1=S | 15.8
Cc1nnc(SC(C)C(=O)Nc2ncc(Cl)cc2Cl)n1Cc1ccccc1 (stereo not shown) | -19.8
CC(=O)NCCC1CCN(c2nc3nonc3nc2N(C)Cc2ccccc2)CC1 | -7.18
COC(=O)C1=CN(Cc2ccccc2)C=C(C(=O)OC)C1c1cc(F)ccc1F | 7.11
Cc1cccc(N(C(=O)c2sc(C)nc2C)C(C(=O)NCc2ccco2)c2ccccc2)c1 (stereo not shown) | 5.72
Cc1cc(C)c2cc(C(=O)N3CCC(N4CCCCC4)CC3)[nH]c2c1 | -58.8
Nc1nnc(SCC(=O)c2ccc3ccccc3c2)s1 | 5.27
Cc1nc2cc(F)ccc2n1C1CCN(S(=O)(=O)c2ccccc2)CC1 | -0.561
O=C1CSC(c2cn(-c3ccccc3)nc2-c2cccs2)N1CC1CCCO1 (stereo not shown) | 6.3
COc1cccc(CN2CCC(CO)(CC3CCCCO3)CC2)c1 (stereo not shown) | 6.77
CCCCc1c(O)nc(SC2CC(=O)N(c3ccc(C(=O)OCC)cc3)C2=O)[nH]c1=O (stereo not shown) | 15.9
Cn1nccc1C(=O)N1CCc2ccccc21 | 11
OCC[C@@H]1C[C@H](O)[C@@H](O)[C@@]2(Cc3ccccc3CO2)O1 | 16
CCc1cc(=O)[nH]c(SCCCF)n1 | 1.4
C/C=C/C=C/C(=O)OCC(=O)Nc1ccc(Cl)cc1 | 20

Structure (SMILES) | hERG current change (%, negative = inhibition) at 1uM [%]
COc1ccc2c(-c3ccccc3)cc(SCC(N)=O)nc2c1 | 5.41
CC1CCCC(C)N1CCCNC(=O)Cn1ncc2c([nH]c3ccccc32)c1=O (stereo not shown) | 11
O=C1CSC(c2ccco2)N1 (stereo not shown) | 11.7
COc1ccc(CNC(=O)C2CC(=O)N(c3ccc(OCC(=O)N4CCCCC4)cc3)C2)cc1 (stereo not shown) | 3.79
O=C(O)c1cc(NN=Nc2cccc([N+](=O)[O-])c2)cc([N+](=O)[O-])c1 | 11.4
Cc1ccc(S(=O)(=O)c2nc(-c3ccco3)oc2SC(C)C)cc1 | 17.3
CCOCCCNS(=O)(=O)c1ccc(-n2cnnn2)c(OC)c1 | 10.1
Cc1ccc(S(=O)(=O)Cn2nnnc2C(CC(C)C)N2CCN(c3ccc(F)cc3)CC2)cc1 (stereo not shown) | 4.96
CCN(CCCNC(=O)c1[nH]c(C)c(C(C)=O)c1C)c1cccc(C)c1 | 10.4
O=C(CN1CCN(S(=O)(=O)c2ccccc2F)CC1)Nc1ccccc1C(=O)c1ccccc1 | -1.79
CCn1nnc(-c2ccccc2NC(=O)c2cc(OC)c(OC)c(OC)c2)n1 | 6.29
CC1CCN(CCc2nc3cc(NS(=O)(=O)c4ccc(F)cc4)ccc3n2C)CC1 | -54.8
Cc1cc(C(F)(F)F)nc(NCc2cccnc2)n1 | 17
CC(C)Oc1cccc(C(=O)C2CCCN(C(=O)c3ccnn3C)C2)c1 (stereo not shown) | 5.9
Cn1cncc1C#Cc1c(C=O)n(C)c2ccccc12 | 26.8
CC(=O)c1ccccc1NC(=O)c1ccc(N2CCCC2=O)cc1 | 7.48
CC(C)CNC(=S)N1CCN(c2nc(-c3ccc(Cl)cc3)cs2)CC1 | 18.9
CN(C)c1nc(N)nc(CSc2ncc(Cl)cc2Cl)n1 | 5.88
COc1cc(C2C(C(C)=O)=C(O)C(=O)N2c2ccc(Br)cn2)ccc1O (stereo not shown) | -7.16
Cn1c(=O)c2c(nc(Oc3ccc4ccccc4c3)n2C)n(C)c1=O | 13.1
CCN(CC(=O)NC(=O)NCc1ccccc1)Cc1ccccc1 | 2.5
O=C(Nc1ccon1)c1ccc(Cl)s1 | 6.28

Structure (SMILES) | hERG current change (%, negative = inhibition) at 1uM [%]
Cc1ccc(-n2nc(C(=O)N3CCOCC3)cc2-c2ccc(Cl)cc2)cc1 | -87.4
O=C(O)c1ccccc1C(=O)Nc1ccccn1 | 9.16
Fc1ccc(NCc2cccnc2)cc1F | 9.06
O=C(COC(=O)CC1Sc2ccccc2NC1=O)NCc1ccccc1 (stereo not shown) | -14.6
O=C(Nc1nn[nH]n1)c1cccc([N+](=O)[O-])c1 | -1.74
Oc1ccc(N=Nc2n[nH]c(-c3ccccc3)n2)cc1 | 7.56
Cc1cc2c(c(SCC(N)=O)n1)C(=O)OC2 | 6.51
OC(CN1CCN(c2ccccc2Cl)CC1)c1ccccc1 (stereo not shown) | 3.03
O=C(O)C(=O)O.Oc1ccccc1CN1CCN(C(O)(c2ccccc2)c2ccccc2)CC1 | -1.63
C/C=C(/C)C(=O)OC1Cc2c(ccc3ccc(=O)oc23)OC1(C)C (stereo not shown) | 14
COC(=O)c1cc(NC(=O)c2ccccc2)c(=O)oc1C | 10.1
Cc1sc2c(c1C)CN(Cc1ccncc1)CN2C(=O)c1ccco1 | -8.17
C[C@]12CC[C@H](O)C[C@H]1CC[C@@H]1[C@@H]2C[C@@H](O)[C@]2(C)[C@@H](C3=CC(=O)OC3)CC[C@]12O | 20.3
Nc1c(C(=O)NCCN2CCOCC2)c2nc3ccccc3nc2n1-c1ccc2c(c1)OCO2 | -2.08
COc1cccc(C(C(=O)NCC2CCCO2)N(C(=O)Cn2nnc3ccccc32)c2ccc(NC(C)=O)cc2)c1 (stereo not shown) | 19.6
O=C(NCc1ccccc1C(F)(F)F)C1CC(c2ccccc2C(F)(F)F)=NO1 (stereo not shown) | 3.14
COc1cc(NC(=O)CSCc2ccc(Cl)cc2Cl)c(C(=O)O)cc1OC | 11.8
CC(C)(C)c1nc(N2CCN(C(=O)c3ccco3)CC2)c2nnn(Cc3ccccc3Cl)c2n1 | 3.23
O=C(CSc1nc(COc2ccccc2)nc2ccccc12)NC1CCCC1 | 4.97
COC(=O)C1=C(COc2ccc(F)cc2)NC(=O)NC1c1ccc(C)cc1C (stereo not shown) | 8.46
NCCCC[C@@H]1NC(=O)c2cc([N+](=O)[O-])cc(I)c2SC[C@@H](C(=O)NCC(N)=O)NC(=O)CNC1=O | 13.4
Cc1ccc(-c2c(C)nn3c(N4CCOCC4)cc(C)nc23)cc1 | 11.3

Structure (SMILES) | hERG current change (%, negative = inhibition) at 1uM [%]
COc1ccc(NC(=O)CN(Cc2ccco2)Cc2ccco2)cc1S(=O)(=O)N1CCCCC1 | -5.36
CCCCCNC(=O)CC1Nc2c3ccccc3nc(=S)n2C1=O (stereo not shown) | 5.28
CCOC(=O)CSc1nc2ccccc2c(=O)n1CC1CCC(C(=O)NCc2ccco2)CC1 (stereo not shown) | -8.62
COC(=O)N1CC(c2ccccc2)CC1=O (stereo not shown) | 8.42
O=C(c1cc2cc3ccc(Cl)cc3nc2o1)N1CCCCCC1 | 15
OCCC1CN(Cc2nc3ccccc3s2)CCN1CCc1ccccc1 (stereo not shown) | -58.3
Cc1ccc(Cn2nc(C)cc2C(=O)Nc2ccccc2Cl)cc1 | 16.1
COC(=O)c1ccc(COc2ccc(-c3nn[nH]n3)cc2)cc1 | 5.98
CCCc1nc(SCC(=O)N2CCOCC2)c2c(C)c(C)sc2n1 | -2.97
CN(C)C(=O)CSc1ccc(S(=O)(=O)N2CCOCC2)cn1 | 14.3
C[C@@H](C(=O)Nc1cccnc1)n1c(=O)[nH]c2ccccc2c1=O | 15.4
CCOC(=O)c1c(CSc2ccccc2)oc2cc(Br)c(O)c(CN(C)C)c12.Cl | 13.1
Cc1ccc(-c2cc(C(=O)Nc3nn[nH]n3)c3ccccc3n2)c(C)c1 | 8.15
CCOC(=O)C1CCN(C(=O)COC(=O)c2oc3ccc(OC)cc3c2C)CC1 | -7.34
CC(=O)c1ccc(-n2c(C)c(C(C)=O)c3cc(O)ccc32)cc1 | 12.7
CCc1c(C)sc(NC(=O)c2cccs2)c1C#N | 10.7
Cc1ccc(-c2cc(C(=O)N3CC4(C)CC3CC(C)(C)C4)no2)cc1 (stereo not shown) | 11.1
Cc1cccc(NC(=O)c2ccc(OCC(=O)NCc3ccccc3)cc2)c1C | 4.04
COc1ccc(OC)c(S(=O)(=O)Nc2cc3c4c(c2)C(C)C(=O)N4CCC3)c1 (stereo not shown) | 9.46
Cc1ccc2c(=O)oc(N(C)C)nc2c1 | -3.68
CCC(=O)Nc1cc(C(F)(F)F)ccc1N1CCOCC1 | 10.7
O=S(=O)(NC1CC1)c1cccc(S(=O)(=O)N2CCCC2)c1 | 3.74
